Experimental data published in PubChem BioAssay AID445 (National Center for Advancing Translational Sciences (NCATS), 2006).
Hit rate of the full screen: of about 110,000 compounds, about 40 (0.04%) were called active. This list was built around the results that the source calls inconclusive (neither active nor inactive); the mix of calls is not that of the screen. The call rests on the fitted dose curve; in most records, active means well fitted curve in the direction sought with a large enough effect in the signal ratio (not every such curve was filed as active); inconclusive means small, poorly fitted or top-dose-only effect, or a change in a side signal; inactive means flat fitted curve, though single readings scatter; the % refers to the signal ratio. Where the call is inconclusive, the potency comes from a doubtful curve fit.

experiment: IkB Signaling; conditions: ABC-DLBCL IkBa-CBG/CBR dual luciferase ratio (green luciferase fused to IkBa over red control in OCI-Ly3 lymphoma cells), 4 h; IkBa stabilization activation: at 57.1 µM (top of the series), scaled: untreated 0%, proteasome inhibitor 100% unless noted;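 on IkBa stabilization activation: 0% = basal untreated cells and 100% = reference inhibitor full response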
Procedure, shortened: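 Luminescence ratio of IκBα-fused green versus native red beetle luciferase in OCI-Ly3 cells, 4 h post-doxycycline with compound; red signal alone, scaled from basal (0%) to zero light (-100%), flagged nonspecific or cytotoxic effects.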
Potency means the concentration at half of the fitted maximal effect.

Row | SMILES | IkBa stabilization activation | Potency
1 | Cc1nc(N2CCN(C(=O)c3ccco3)CC2)c2oc3ccccc3c2n1 | inconclusive: -0.69% [signal inhibitor] | 
2 | Cc1c(C(=O)OC2CCCCC2)[nH]c2c1C(=O)CC(c1ccccc1)C2 (stereo unspecified) | inconclusive: -3.66% [signal inhibitor] | 
3 | O=C1c2ccccc2NC(c2ccc3c(c2)OCCO3)N1c1ccc2c(c1)OCCO2 (stereo unspecified) | inactive | 
4 | Cc1ccc(OCC(=O)N(Cc2ccc(Cl)cc2)CC2CCCO2)cc1C (stereo unspecified) | inconclusive: 3.58% [signal inhibitor] | 
5 | COc1ccccc1NC(=O)c1nnn(-c2ccc(F)cc2)c1C | inactive | 
6 | CCc1ccccc1OCCSc1nc(-c2cccs2)nc2cc(=O)[nH]n12 | inactive | 
7 | COc1ccc(C(=O)N2CC(=O)Nc3ccc(C)cc3C2c2ccc(F)cc2)c(OC)c1 (stereo unspecified) | inconclusive: -0.755% [signal inhibitor] | 
8 | Cc1sc2ncn(CC(=O)N3CCN(c4ccccc4F)CC3)c(=O)c2c1S(=O)(=O)N1CCN(c2ncccn2)CC1 | inactive | 
9 | CN(CC(=O)NCc1ccccc1Cl)S(=O)(=O)c1ccc2c(c1)c(=O)n(C)c(=O)n2C | inactive | 
10 | CC(=O)N(C[C@@H](C)C(=O)O)c1c(I)cc(I)c(N)c1I | inactive | 
11 | COc1cccc(C(=O)Cn2c(=N)n(C)c3ccccc32)c1 | inconclusive: 8.68% [signal inhibitor] | 
12 | CCOC(=O)C(/C(N)=N/C(=O)Nc1ccccc1)=C(\C)O | inactive | 
13 | O=C(Nc1cccc(Br)c1)c1ccn[nH]1 | inactive | 
14 | COc1ccc(N(CC(=O)Nc2ccc(F)c(Cl)c2)S(=O)(=O)c2c(C)noc2C)cc1 | inconclusive: 8.93% [signal inhibitor] | 
15 | CCOc1ccc(C(=O)N2CCC(c3nc(-c4ccc(S(=O)(=O)N5CCCC5)cc4)no3)CC2)cc1 | inconclusive: -0.675% [signal inhibitor] | 
16 | Nc1nc2c(c(=O)[nH]1)CN(CCCN1CCOCC1)CN2 | inactive: 1.29% [at 11.4 µM, scaled: untreated 0%, proteasome inhibitor 100%] | 
17 | c1ccc(CSc2nnc(C3CCNCC3)o2)cc1 | inactive | 
18 | CCOc1ccc(Cc2nccc3cc(OCC)c(OCC)cc23)cc1OCC | inactive | 
19 | Cc1ccc(C(C)C)c(OCC(=O)Nc2cccc(-c3nc4ncccc4o3)c2)c1 | inconclusive: 11.7% [signal inhibitor] | 
20 | Cn1cccc1C(=O)N1CCC2(CCCN(Cc3ccccc3)C2)CC1 | inactive: -1.15% [at 11.4 µM, scaled: untreated 0%, proteasome inhibitor 100%] | 
21 | CCOc1ccc(NC(=O)N(Cc2ccc(CC)cc2)Cc2cn[nH]c2-c2ccc(OC)cc2)cc1 | inconclusive: 1.9% [signal inhibitor] | 
22 | O=c1[nH]ncc2ccccc12 | inconclusive: 7.87% [signal activator] | 
23 | CC(=O)Nc1ccc(NC(=O)CSc2cn(CC(=O)N(C(C)C)C(C)C)c3ccccc23)cc1 | inconclusive: 0.121% [signal inhibitor] | 

Row | SMILES | IkBa stabilization activation | Potency
24 | Cc1ccc(-c2noc(CN(C3CCCCC3)S(=O)(=O)c3ccc(F)cc3)n2)cc1 | inconclusive: 0.306% [signal inhibitor] | 
25 | Cc1ccc2nc(-c3ccc(N)cc3)sc2c1S(=O)(=O)O | inactive | 
26 | COc1ccc(OCCn2cc(C(=O)c3ccco3)c3ccccc32)cc1 |  | inconclusive: 3.16 µM [signal inhibitor, partial curve]
27 | CC1(C)CC(=O)C=C(Nc2ccccc2O)C1 |  | inconclusive: 15.8 µM [signal inhibitor, partial curve]
28 | COC(=O)c1cc2occc2n1Cc1nc(-c2ccccc2C)oc1C | inactive | 
29 | CCC(C)Sc1nc2c([nH]c3ccccc32)c(=O)n1C (stereo unspecified) | inactive | 
30 | CCN1CCN(C(=O)c2ccc3c(c2)N(Cc2c(F)cccc2Cl)C(=O)c2ccccc2S3)CC1 | inconclusive: 0.783% [signal inhibitor] | 
31 | CCc1ccccc1S(=O)(=O)Cc1ccc(C(=O)NC(C)C)o1 | inactive | 
32 | Cc1oc2ccc(O)c(CN3CCN(C)CC3)c2c1C(=O)Nc1ccc(C(C)C)cc1 | inconclusive: 5.07% [signal inhibitor] | 
33 | COc1ccc(CNC(=O)C(OC(C)=O)c2ccccn2)cc1 (stereo unspecified) | inactive | 
34 | Fc1ccc(Nc2nc(-c3cccnc3)nc3ccccc23)cc1 | inactive: -5.99% [at 11.4 µM, scaled: untreated 0%, proteasome inhibitor 100%] | 
35 | Cc1cc(C)n2nc(NCc3ccccc3Cl)nc2n1 | inconclusive: 5.1% [signal inhibitor] | 
36 | CCN(CC)c1ccc(C(=O)Nc2ccc3nc(N(CC)CC)cc(C)c3c2)cc1 | inconclusive: -1.03% [signal inhibitor] | 
37 | Cc1ccc2[nH]c(CSc3nnc(NC(=O)COc4ccccc4Cl)s3)cc(=O)c2c1 | inconclusive: -2.57% [signal inhibitor] | 
38 | CN(Cc1ccccc1)C(=O)Cn1c(=O)c2cccn2c2ccc(F)cc21 | inactive | 
39 | COc1ccc(NC(=O)N2CCCc3ccccc32)cc1 | inactive | 
40 | CCc1ccc(NC(=O)C2CCCN(S(=O)(=O)c3cccc4cccnc34)C2)cc1 (stereo unspecified) | inconclusive: -0.137% [signal inhibitor] | 
41 | O=C(/C=C/Nc1ccc(F)c(Cl)c1)c1ccco1 | inconclusive: 12% [signal inhibitor] | 
42 | Cc1ccc(CNC(=O)c2sc3ncnc(N(C)C4CCCCC4)c3c2C)cc1 | inconclusive: 0.225% [signal inhibitor] | 
43 | COc1ccc(CNc2ncnc3ccc(-c4ccoc4)cc23)c(OC)c1 | inactive: -2.01% [at 11.4 µM, scaled: untreated 0%, proteasome inhibitor 100%] | 
44 | Cc1ccccc1NC(=O)C1CCN(S(=O)(=O)c2ccccc2)CC1 | inconclusive: 1.27% [signal inhibitor] | 
45 | COc1cc2c(cc1OC)C(COc1cc(C)cc(C)c1)N(C(=O)c1ccc(S(=O)(=O)N3CCCC3)cc1)CC2 (stereo unspecified) | inconclusive: -1.97% [signal inhibitor] | 
46 | COc1ccc2noc3c2c1C(=O)c1ccccc1-3 | inconclusive: 4.92% [signal inhibitor] | 
